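Step 1: Grow cells in 96-well plates. Step 2: Expose to compound for 48 hours at 5 concentrations. Step 3: Interpolate endpoints linearly; if unreached, use highest concentration. GI50 = concentration required for 50% inhibition of growth.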 Calls of active or inactive are those of the source. Rule as the data show it: active = GI50 up to about 1.1 µM and inactive = higher.
tested on: NCI-H322M; assay: NCI-60 cell line screen, 48 h

Compound | GI50
C/C(=C\CO)CC/C=C(\C)CNc1c(F)c(F)c(F)c(F)c1F | inactive: 24.6 µM
Nc1nc(Cl)cc(NCC2(CO)CCC2)n1 | inactive: > 100 µM
C[Si](C)(OCCS(=O)(=O)O)C1(Cc2cccc3ccccc23)S(=O)(=O)OCCOS1(=O)=O | inactive: 21 µM
CC(C)(C)C1CCC(=O)C(C(O)CC2CC(=O)N(c3ccccc3)C(=O)C2)C1 (stereo not given) | inactive: > 100 µM
CC(C)(C)C(=O)CC1(O)C=C(O)C(O)(CC(=O)C(C)(C)C)O1 (stereo not given) | inactive: > 100 µM
CC(=O)OC1COC(n2c(=S)n(-c3ccc(C)cc3)c(=O)c3ccccc32)C(OC(C)=O)C1OC(C)=O (stereo not given) | inactive: > 100 µM
O=C(CCc1nnc2s/c(=C\c3ccc4c(c3)OCO4)c(=O)n12)Nc1cc(Cl)ccc1Cl | inactive: > 100 µM
NC(=O)/C(=N\NC(=O)C[n+]1ccccc1)C1NC(=O)NC1=O (stereo not given) | inactive: > 100 µM
O=C1NC2C(=O)N(Cc3ccccc3)C(=O)C2N1 (stereo not given) | inactive: > 100 µM
CC(C)(C)c1ccc(C(C)(C)C)c(N2C(=O)C3ON=C(c4ccc([N+](=O)[O-])cc4)C3C2=O)c1 (stereo not given) | inactive: 15.8 µM
CN(C)CCNC(=O)c1ccc(NCCCN(C)CCCNc2ccc(C(=O)NCCN(C)C)c3nc4ccccc4c(O)c23)c2c(O)c3ccccc3nc12 | active: < 0.01 µM
C=CCSSCC=C | inactive: > 100 µM
O=c1[nH]c2nc3ccccc3c(=O)n2nc1Cc1ccccc1 | inactive: > 100 µM
COC1=C2CC(C)CC(OC)C(O)C(C)/C=C(\C)C(OC(N)=O)C(OC)/C=C\C=C(/C)C(=O)NC(=C(/C=N/C(C)(C)C)C1=O)C2=O (stereo not given) | inactive: 6.05 µM
O=C(O[C@H]1CCN2C[C@H]3C[C@H](CN4C(=O)CCC[C@H]34)[C@@H]2C1)c1ccc(O)cc1 | inactive: > 100 µM
FC(F)(F)c1nc2ccc(SSc3ccc4nc(C(F)(F)F)[nH]c4c3)cc2[nH]1 | inactive: > 10 µM
C/C(Nc1ccc(Cl)cc1)=C1/CCOC1=O | inactive: 8.75 µM
CCCCCCC(O)CC[C@H]1CCC[C@@H](C)N1 (stereo not given in full) | inactive: > 31.6 µM
C[C@@H]1S[C@H](c2ccccc2F)N2Cc3ccccc3N=C12 | inactive: 32.4 µM
CN(C)Cc1cc(C(=O)/C=C/c2ccc(F)cc2)cc(CN(C)C)c1O | inactive: 31.8 µM
O=C(O)c1cccc(NC(C(=O)c2ccccc2)c2ccccc2)c1 (stereo not given) | inactive: > 100 µM
CCOC(=O)C(Cc1ccc(N=NN(C)C)cc1)NC(=O)CC1c2ccccc2-c2ccccc21 (stereo not given) | inactive: > 100 µM
C/C(=N\Nc1ccc([N+](=O)[O-])cc1[N+](=O)[O-])c1sc(-n2nc(-c3ccccc3)cc2-c2ccccc2)nc1C | inactive: 18.1 µM

Compound | GI50
NC(=S)SC1=NC(=O)C2(NN1)c1ccccc1-c1ccccc12 | inactive: > 10 µM
COc1cc2cnc(-c3ccccc3)cc2cc1OC | inactive: 30.3 µM
N#CC1=CNc2sccc2S1(=O)=O | inactive: > 100 µM
CN/N=C(/CC(=O)c1sc(NNC(C)=O)nc1C)C(=O)Nc1ccc(OC)cc1OC | inactive: > 100 µM
CCCCCCCCCc1cc(-c2ccc(C=O)s2)sc1-c1ccc(C=O)s1 | inactive: 54.7 µM
C[C@]12CC[C@H]3[C@@H](CC=C4C[C@@H](O)CC[C@@]43C)[C@@H]1C/C(=C\c1cccnc1)[C@@H]2O | inactive: 37.9 µM
Nc1ncnc2c1ncn2C1C=CC(CP(=O)(O)O)C1 (stereo not given) | inactive: > 100 µM
CC1=CCC([C@@](C)(O)CCCC(C)(C)N=C=S)CC1 (stereo not given in full) | inactive: 17.7 µM
O=c1nc(N2CCCCC2)sc2[nH]c3ccccc3c12 | inactive: > 100 µM
O=c1[nH]c(Nc2nc3ccccc3[nH]2)nc(O)c1Cc1ccccc1 | inactive: > 100 µM
Cc1cc(C)c2c(=O)n(CN3CCC(C#N)(c4ccccc4)CC3)sc2n1 | inactive: > 100 µM
Cc1ccc(S(=O)(=O)CC2CCCn3c2c(C#N)c2ccccc23)cc1 (stereo not given) | inactive: > 100 µM
O=C(/C=C/c1ccc(Cl)c(Cl)c1)Oc1ccc(/C=C2\CCCCC2=O)cc1 | inactive: > 100 µM
Cc1ccc(-c2c(C#N)c(S)n(NS(=O)(=O)c3ccccc3)c(=O)c2C#N)cc1 | inactive: 89.7 µM
COc1ccc2c(c1)-c1[nH]c3ccc(OC)cc3c1CC2 | inactive: 15.9 µM
Cc1c(-c2ccccc2)c(C#N)c2nnn(-c3ccc([N+](=O)[O-])cc3)c(=O)n12 | inactive: 22.8 µM
CC[C@@H](CCCC[C@@H]1CC[C@H]2CC(=O)C[C@@H]12)OC | inactive: > 100 µM
COc1cccc(-c2cc(=O)c3ccc(C)nc3[nH]2)c1 | active: 0.126 µM
CN1CCCCC(C#N)(c2ccccc2)CC1 (stereo not given) | inactive: > 100 µM
COc1cccc(-c2c(C#N)c(N)nc3c2CCS(=O)(=O)c2ccc(C)cc2-3)c1 | inactive: > 100 µM
O=C(C(=O)c1cc(-c2ccccc2)nc2ccc3ccccc3c12)c1ccccc1 | inactive: 54.2 µM
COc1ccc(/C=N/N=C(\N)NO)cc1O | inactive: 36.3 µM
C/C(=C\CNc1ncnc2[nH]c(Cl)nc12)CO | inactive: > 100 µM

Compound | GI50
COC(=O)NNC(=O)OC.COC(=O)Nc1ccccc1NC(=O)OC.COC(=O)Oc1nn(C(=O)OC)c(=O)c2ccccc12 | inactive: > 100 µM
NC(=O)N/N=C(\CCC(=O)N(Cc1ccccc1)Cc1ccccc1)CC(=O)c1ccc(F)cc1 | inactive: > 100 µM
CCC(C)(C)c1ccc(Oc2cccc(C(=O)O)c2)cc1 | inactive: 82.4 µM
CCC(=O)OCc1ccc2oc(=O)c(C(=O)Oc3cncc(Cl)c3)cc2c1 | inactive: 87.3 µM
CC1=C(C(=O)CC(=O)C(=O)Nc2ccccc2C)Sc2ccccc2N1 | inactive: > 100 µM
Cc1ccc2c(c1)S(=O)(=O)c1ccc3ccccc3c1N2 | inactive: > 100 µM
O=c1[nH]c2ccccc2n1CCCN1CCC(n2c(=O)[nH]c3cc(Cl)ccc32)CC1 [DOMPERIDONE] | inactive: 18.1 µM
CC(C)(C)OC(=O)C1/C(=C/CBr)CN1C(=O)OC(C)(C)C (stereo not given) | inactive: 17.2 µM
CC(=O)O[C@H]1C(=O)[C@@]2(C)[C@H]([C@H](OC(=O)c3ccccc3)[C@]3(O)C[C@H](OC(=O)[C@H](O)[C@@H](NC(=O)c4ccoc4)c4ccccc4)C(C)=C1C3(C)C)[C@]1(OC(C)=O)CO[C@@H]1C[C@@H]2O | active: 0.01 µM
CCSC12CC3c4cccc5c4C(CN5C(=O)c4ccccc4)CC3(O1)N(C)C2=O (stereo not given) | inactive: 35.8 µM
CC(=O)n1nc(-c2ccccc2)n(/N=C/c2ccc([N+](=O)[O-])cc2)c1=O | inactive: 36.1 µM
CCc1n[nH]c(=O)n1/N=C/c1ccccc1Cl | inactive: > 100 µM
CC1=CC(=O)c2cccc(NC3=NCCO3)c21 | inactive: > 100 µM
Cc1cccc(C(C)C)c1NC(=O)C(=O)CC(=O)c1sc(Nc2ccccc2Cl)nc1C | inactive: 57.9 µM
O=C1OC(=O)c2c1nc1ccccc1c2-c1ccccc1 | inactive: > 100 µM
CN(C)Cc1cc(/N=N/c2ccccc2Cl)cc(CN(C)C)c1O | inactive: > 100 µM
Cc1noc(NC(=O)Nc2ccccc2F)c1C#N | inactive: > 29.6 µM
Cc1cc(S(=O)(=O)Nc2nnc3cc(C(F)(F)F)cc(C)n23)c(S)cc1Cl | inactive: 27.4 µM
C#CCC(O)c1ccccc1C(O)CC#C (stereo not given) | inactive: > 100 µM
CCCCCCCC(=O)OCC1OC(n2cc(F)c(=O)[nH]c2=O)C(N)C(O)C1O (stereo not given) | inactive: > 100 µM
COc1ccccc1/C=C(\C#N)c1ccccc1 | inactive: 45.3 µM
O=C(Nc1cc2cc([N+](=O)[O-])ccc2oc1=O)c1cccs1 | inactive: > 100 µM
CC(=O)O[C@H]1/C(=C/c2ccc(N(C)C)cc2)C[C@H]2[C@@H]3CC=C4C[C@@H](N5CCCC5)CC[C@]4(C)[C@H]3CC[C@]12C | inactive: > 100 µM

Compound | GI50
O=C(Cc1ccccc1)NN1C(=O)/C(=C\c2ccccc2O)S/C1=N\c1ccccc1 | inactive: > 100 µM
Cc1sccc1C(=S)Nc1ccc(Cl)c(/C=N/OC(C)(C)C)c1 | inactive: 33.8 µM
CC1(C)C2CCC(=O)C1C(OCc1ccccc1)C2 (stereo not given) | inactive: > 100 µM
COc1cc2c(cc1OCCCCN1CCN(CCCCOc3cc4c(cc3OC)C(=O)N3CCC[C@H]3C=N4)CC1)N=C[C@@H]1CCCN1C2=O | active: 0.132 µM
S=C=NCc1ccccc1 [BENZYL ISOTHIOCYANATE] | inactive: 13.9 µM
O=C1/C(=C/c2ccccc2S)N=C(c2ccccc2)N1c1ccc2c(c1)Sc1cc(N3C(=O)/C(=C/c4ccccc4S)N=C3c3ccccc3)ccc1N2 | inactive: 17.9 µM
Cc1nc2ccc(F)cc2c2c1CCN2c1ccccc1 | inactive: 21.7 µM
COC1C(=O)N(SC)C1c1ccccc1Cl (stereo not given) | inactive: > 100 µM
C/C(=C1/N=C(c2cc([N+](=O)[O-])ccc2Cl)N(c2ccc(Br)cc2)C1=O)c1ccc(N(CCC#N)CCC#N)cc1C | inactive: 58.2 µM
O=c1c2cc(S(=O)(=O)Nc3ccccc3Cl)ccc2ncn1NS(=O)(=O)c1ccc(Br)cc1 | inactive: > 37.5 µM
O=C(O)CN1CCNCCN(CP(=O)(O)O)CC1 | inactive: > 24.7 µM
NCCCN(CCCN)CCCNCc1c2ccccc2c(CNCCCN(CCCN)CCCN)c2ccccc12 | inactive: 13.2 µM
O=C(O)C1C2C=CC(O2)C1C(=O)Nc1ncccn1 (stereo not given) | inactive: > 100 µM
Cc1nc(NC(C)(CO)CO)nc(N/N=C/c2ccc(Cl)cc2)c1C(=O)Nc1ccc(Cl)cc1 | inactive: > 100 µM
CSc1nc2cc(S(=O)(=O)N3CCCCC3)ccc2s1 | inactive: 48.9 µM
CCCCCC(C)SC1(C(=O)OC)CC(OC(C)=O)C(NC(C)=O)C([C@H](OC(C)=O)[C@@H](COC(C)=O)OC(C)=O)O1 (stereo not given in full) | inactive: > 100 µM
CCOC(=O)C1=C(C)NC(=S)NC1c1cccc(O)c1 (stereo not given) [MONASTROL] | inactive: 35.9 µM
CCOC(=O)N1C/C(=C\c2ccccc2)C(=O)/C(=C/c2ccccc2)C1 | inactive: 15 µM
COc1ccc2c(C)cc(=O)oc2c1OC | inactive: > 100 µM
Cc1[nH]c2ccccc2c1C1Cc2ccccc2N1C(=O)/C=C/C(=O)O (stereo not given) | inactive: > 100 µM
CN(C)c1ccc(C2=C([O-])c3cc(-[n+]4ccccc4)ccc3C2=O)cc1 | inactive: > 100 µM
